One experiment concerns RS4;11 cells. The experiment can be described thus: cells. Conditions: Homo sapiens.
For the next experiment, the system named is Molt-4 cells. The experiment can be described thus: cells. Conditions: Homo sapiens.
[1] abbreviates: RS4-11, 48 h, read-out: Cellular activity (IC50, nM) RS4;11.
[2] abbreviates: MOLT-4, read-out: Cellular activity (IC50, nM) Molt-4.
Setting [3] is: RS4-11, 48 h, read-out: Cellular activity (IC50, nM) RS4, 11.
Setting [4] is: RS4-11, read-out: Celluclar activity (IC50, nM) RS 4, 11.
Where [5] appears, read: MOLT-4, read-out: Celluclar activity (IC50, nM) Molt-4.

Like-named read-outs stand apart in the source and are kept apart here. Where only a bound is given, the exact number is not on record here.

As usually defined, the IC50 is the concentration that inhibits the measured activity by half. Take `O=C(NS(=O)(=O)c1ccc(NCC2CCOCC2)c([N+](=O)[O-])c1)c1ccc(N2CCC3(CC2)CC(N2CC(C4CC4)CC2c2ccccc2C2CC2)C3)cc1Oc1cnc2[nH]ccc2c1` (stereo not drawn) [Example F79, 2-((1H-pyrrolo[2,3-b]pyridin-5-yl)oxy)-4-(2-(4-cyclopropyl-2-(2-cyclopropylphenyl)pyrrolidin-1-yl)-7-azaspiro[3.5]nonan-7-yl)-N-((3-nitro-4-(((tetrahydro-2H-pyran-4-yl)methyl)amino)phenyl)sulfonyl)benzamide]: the results for the IC50 in the experiment with RS4;11 cells (setting [1]) and in the experiment with Molt-4 cells (setting [2]) were 38 nM and greater than 10000 nM, respectively.
Regarding `O=C(NS(=O)(=O)c1ccc(NCC2C3COCC23)c([N+](=O)[O-])c1)c1ccc(N2CCC3(CC2)CC(N2CCC[C@H]2c2ccccc2C2CC2)C3)cc1Oc1cnc2[nH]ccc2c1` (stereo partly drawn) [Example F119, 2-((1H-pyrrolo[2,3-b]pyridin-5-yl)oxy)-N-((4-(((3-oxabicyclo[3.1.0]hexan-6-yl)methyl)amino)-3-nitrophenyl)sulfonyl)-4-(2-((S)-2-(2-cyclopropylphenyl)pyrrolidin-1-yl)-7-azaspiro[3.5]nonan-7-yl)benzamide], the IC50 stood at 2.1 nM in the experiment with RS4;11 cells (setting [1]) and 2800 nM with Molt-4 cells (setting [2]).
For `CN1CCC(c2ccccc2[C@H]2CCCN2c2ccc(-c3ccc(C(=O)NS(=O)(=O)c4ccc(NCC5CCOCC5)c([N+](=O)[O-])c4)c(Oc4cnc5[nH]ccc5c4)c3)cc2)CC1=O` (stereo partly drawn) [Example A101, 3-((1H-pyrrolo[2,3-b]pyridin-5-yl)oxy)-4′-((2R)-2-(2-(1-methyl-2-oxopiperidin-4-yl)phenyl)pyrrolidin-1-yl)-N-((3-nitro-4-(((tetrahydro-2H-pyran-4-yl)methyl)amino)phenyl)sulfonyl)-[1,1′-biphenyl]-4-carboxamide], in that order: 7.1 nM and 2410 nM.
Take `O=C(NS(=O)(=O)c1ccc(NC(=O)N2CCOCC2)c([N+](=O)[O-])c1)c1ccc(C2=CCC(N3CCCC3c3ccccc3C3CC3)CC2)cc1Oc1cnc2[nH]ccc2c1` (stereo not drawn) [Example G84, N-(4-(N-(3-((1H-pyrrolo[2,3-b]pyridin-5-yl)oxy)-4′-(2-(2-cyclopropylphenyl)pyrrolidin-1-yl)-2′,3′,4′,5′-tetrahydro-[1,1′-biphenyl]-4-carbonyl)sulfamoyl)-2-nitrophenyl)morpholine-4-carboxamide]: the half-inhibitory concentration (IC50) in the experiment on RS4;11 cells (setting [3]) came to 117 nM; in the experiment on Molt-4 cells (setting [2]) it was 7310 nM.
For `O=C(NS(=O)(=O)c1ccc(NCC2CCOCC2)c([N+](=O)[O-])c1)c1ccc(-c2ccc(N3CCCC3c3ccccc3)c(F)c2)cc1Oc1cnc2[nH]ccc2c1` (stereo not drawn) [Example A33, 3-((1H-pyrrolo[2,3-h]pyridin-5-yl)oxy)-3′-fluoro-N-((3-nitro-4-(((tetrahydro-2H-pyran-4-yl)methyl)amino)phenyl)sulfonyl)-4′-(2-phenylpyrrolidin-1-yl)-[1,1′-biphenyl]-4-carboxamide], in that order: 1370 nM and greater than 10000 nM.
Take `[2H]C([2H])([2H])N(c1ccccc1[C@@H]1CCCN1C1CC2(CCN(c3ccc(C(=O)NS(=O)(=O)c4ccc(NC[C@H]5CC[C@](C)(O)CC5)c([N+](=O)[O-])c4)c(Oc4cnc5[nH]ccc5c4)c3)CC2)C1)C([2H])([2H])[2H]` [Example F64, 2-((1H-pyrrolo[2,3-b]pyridin-5-yl)oxy)-4-(2-((S)-2-(2-(bis(methyl-d3)amino)phenyl)pyrrolidin-1-yl)-7-azaspiro[3.5]nonan-7-yl)-N-((4-((((1r,4r)-4-hydroxy-4-methylcyclohexyl)methyl)amino)-3-nitrophenyl)sulfonyl)benzamide]: the IC50 was found to be 0.8 nM in the experiment on RS4;11 cells (setting [1]), 0.8 nM with RS4;11 cells (setting [4]), 2440 nM in the experiment on Molt-4 cells (setting [5]) and 2440 nM with Molt-4 cells (setting [2]).
As for `CN(C)c1ccccc1[C@@H]1CCCN1C1CC2(CCN(c3ccc(C(=O)NS(=O)(=O)c4ccc(NC[C@H]5CC[C@](C)(O)CC5)c([N+](=O)[O-])c4)c(Oc4cnc5[nH]ccc5c4)c3)CC2)C1` [Example F63, 2-((1H-pyrrolo[2,3-b]pyridin-5-yl)oxy)-4-(2-((S)-2-(2-(dimethylamino)phenyl)pyrrolidin-1-yl)-7-azaspiro[3.5]nonan-7-yl)-N-((4-((((1r,4r)-4-hydroxy-4-methylcyclohexyl)methyl)amino)-3-nitrophenyl)sulfonyl)benzamide], the half-inhibitory concentration (IC50) in the experiment with RS4;11 cells (setting [1]) was 0.8 nM; in the experiment with RS4;11 cells (setting [4]), 0.8 nM; with Molt-4 cells (setting [5]), 6820 nM; with Molt-4 cells (setting [2]) it was 6820 nM.
For the compound `O=C(NS(=O)(=O)c1ccc(NCCN2CCOCC2=O)c([N+](=O)[O-])c1)c1ccc(N2CCC3(CC2)CC(N2CCC[C@H]2c2ccccc2C2CC2)C3)cc1Oc1cnc2[nH]ccc2c1` [Example F118, (S)-2-((1H-pyrrolo[2,3-b]pyridin-5-yl)oxy)-4-(2-(2-(2-cyclopropylphenyl)pyrrolidin-1-yl)-7-azaspiro[3.5]nonan-7-yl)-N-((3-nitro-4-((2-(3-oxomorpholino)ethyl)amino)phenyl)sulfonyl)benzamide], the IC50 in the experiment on RS4;11 cells (setting [1]) was 120 nM; in the experiment on Molt-4 cells (setting [2]) it was greater than 10000 nM.
As to `CCCc1ccccc1[C@@H]1CCCN1C1CC2(CCN(c3ccc(C(=O)NS(=O)(=O)c4ccc(NC[C@H]5CC[C@](C)(O)CC5)c([N+](=O)[O-])c4)c(Oc4cnc5[nH]ccc5c4)c3)CC2)C1` [Example F105, 2-((1H-pyrrolo[2,3-b]pyridin-5-yl)oxy)-N-((4-((((1r,4r)-4-hydroxy-4-methylcyclohexyl)methyl)amino)-3-nitrophenyl)sulfonyl)-4-(2-((S)-2-(2-propylphenyl)pyrrolidin-1-yl)-7-azaspiro[3.5]nonan-7-yl)benzamide], the IC50 with RS4;11 cells (setting [1]) came to 11 nM; in the experiment on Molt-4 cells (setting [2]), 7700 nM.
For the compound `O=C(NS(=O)(=O)c1ccc(NC2CCN(C3COC3)CC2)c([N+](=O)[O-])c1)c1ccc(-c2ccc(N3CCCC3c3ccccc3Cl)cc2)cc1Oc1cnc2[nH]ccc2c1` (stereo not drawn) [Example G4, 3-((1H-pyrrolo[2,3-b]pyridin-5-yl)oxy)-4′-(2-(2-chlorophenyl)pyrrolidin-1-yl)-N-((3-nitro-4-((1-(oxetan-3-yl)piperidin-4-yl)amino)phenyl)sulfonyl)-[1,1′-biphenyl]-4-carboxamide], the values for the half-maximal inhibitory concentration (IC50) in the experiment on RS4;11 cells (setting [3]) and in the experiment on Molt-4 cells (setting [2]) were 241 nM and greater than 10000 nM, respectively.
For `O=C(NS(=O)(=O)c1ccc(NCC2CCOCC2)c([N+](=O)[O-])c1)c1ccc(C2=CCC(N3CCCC3c3ccccc3C3=CCNCC3)CC2)cc1Oc1cnc2[nH]ccc2c1` (stereo not drawn) [Example C195, 3-((1H-pyrrolo[2,3-b]pyridin-5-yl)oxy)-N-((3-nitro-4-(((tetrahydro-2H-pyran-4-yl)methyl)amino)phenyl)sulfonyl)-4′-(2-(2-(1,2,3,6-tetrahydropyridin-4-yl)phenyl)pyrrolidin-1-yl)-2′,3′,4′,5′-tetrahydro-[1,1′-biphenyl]-4-carboxamide], the concentration for half-maximal inhibition (IC50) with RS4;11 cells (setting [3]) and in the experiment on Molt-4 cells (setting [2]) was greater than 10000 nM throughout.
Take `CN1CCC(c2ccccc2C2CCCN2c2ccc(-c3ccc(C(=O)NS(=O)(=O)c4ccc(NCC5CCOCC5)c([N+](=O)[O-])c4)c(Oc4cnc5[nH]ccc5c4)c3)cc2)C1` (stereo not drawn) [Example A126, 3-((1H-pyrrolo[2,3-b]pyridin-5-yl)oxy)-4′-(2-(2-(1-methylpyrrolidin-3-yl)phenyl)pyrrolidin-1-yl)-N-((3-nitro-4-(((tetrahydro-2H-pyran-4-yl)methyl)amino)phenyl)sulfonyl)-[1,1′-biphenyl]-4-carboxamide]: the figures for the IC50 in the experiment on RS4;11 cells (setting [1]) and in the experiment with Molt-4 cells (setting [2]) were 26 nM and greater than 10000 nM, respectively.
The matching figures for `C[C@]1(O)CC[C@H](CNc2ccc(S(=O)(=O)NC(=O)c3ccc(N4CC5(CCC(N6CCC[C@H]6c6ccccc6C6CC6)C5)C4)cc3Oc3cnc4[nH]ccc4c3)cc2[N+](=O)[O-])CC1` (stereo partly drawn) [Example F123, 2-((1H-pyrrolo[2,3-b]pyridin-5-yl)oxy)-4-(6-((S)-2-(2-cyclopropylphenyl)pyrrolidin-1-yl)-2-azaspiro[3.4]octan-2-yl)-N-((4-((((1r,4r)-4-hydroxy-4-methylcyclohexyl)methyl)amino)-3-nitrophenyl)sulfonyl)benzamide]: 28.8 nM and greater than 10000 nM.
The matching figures for `O=C(NS(=O)(=O)c1ccc(NCC2CCOCC2)c([N+](=O)[O-])c1)c1ccc(-c2ccc(N3CCCC3c3ccccc3N3CCC3)cc2)cc1Oc1cnc2[nH]ccc2c1` (stereo not drawn) [Example A66, 3-((1H-pyrrolo[2,3-b]pyridin-5-yl)oxy)-4′-(2-(2-(azetidin-1-yl)phenyl)pyrrolidin-1-yl)-N-((3-nitro-4-(((tetrahydro-2H-pyran-4-yl)methyl)amino)phenyl)sulfonyl)-[1,1′-biphenyl]-4-carboxamide]: 289 nM and greater than 10000 nM.
Take `CN(c1ccccc1C1CCCN1C1CC=C(c2ccc(C(=O)NS(=O)(=O)c3ccc(NCC4CCOCC4)c([N+](=O)[O-])c3)c(Oc3cnc4[nH]ccc4c3)c2)CC1)C1CC1` (stereo not drawn) [Example C174, 3-((1H-pyrrolo[2,3-b]pyridin-5-yl)oxy)-4′-(2-(2-(cyclopropyl(methyl)amino)phenyl)pyrrolidin-1-yl)-N-((3-nitro-4-(((tetrahydro-2H-pyran-4-yl)methyl)amino)phenyl)sulfonyl)-2′,3′,4′,5′-tetrahydro-[1,1′-biphenyl]-4-carboxamide]: the 50% inhibitory concentration (IC50) in the experiment with RS4;11 cells (setting [3]) was 260 nM; with Molt-4 cells (setting [2]), greater than 10000 nM.
For `O=C(NS(=O)(=O)c1ccc(NCC2CCOCC2)c([N+](=O)[O-])c1)c1ccc(C2=CCC(N3CCCC3c3cccc4c3OCO4)CC2)cc1Oc1cnc2[nH]ccc2c1` (stereo not drawn) [Example C139, 3-((1H-pyrrolo[2,3-b]pyridin-5-yl)oxy)-4′-(2-(benzo[d][1,3]dioxol-4-yl)pyrrolidin-1-yl)-N-((3-nitro-4-(((tetrahydro-2H-pyran-4-yl)methyl)amino)phenyl)sulfonyl)-2′,3′,4′,5′-tetrahydro-[1,1′-biphenyl]-4-carboxamide], in that order: 346 nM and greater than 10000 nM.

These data come from patent publication US11420968B2 (priority 2018, dated 2022).
